Data published in article PMC4336329 (PLoS ONE, 2015).
About 2,200 (0.71%) of roughly 310,000 compounds showed an effect of 50% or more. The effect is printed as a negative number. This is one part of the list. Where a SMILES comes first, the peptide text is derived from it. [ ]: non-standard residue; d: D form. Inp = O=C(O)C1CCNCC1

The compounds below were run against human ether-à-go-go-related gene (hERG) potassium channel (human, UniProt Q12809) (assay: primary screen, population patch clamp on CHO cells stably expressing hERG).
human ether-à-go-go-related gene (hERG) potassium channel, sequence (Q12809 whole entry, looked up): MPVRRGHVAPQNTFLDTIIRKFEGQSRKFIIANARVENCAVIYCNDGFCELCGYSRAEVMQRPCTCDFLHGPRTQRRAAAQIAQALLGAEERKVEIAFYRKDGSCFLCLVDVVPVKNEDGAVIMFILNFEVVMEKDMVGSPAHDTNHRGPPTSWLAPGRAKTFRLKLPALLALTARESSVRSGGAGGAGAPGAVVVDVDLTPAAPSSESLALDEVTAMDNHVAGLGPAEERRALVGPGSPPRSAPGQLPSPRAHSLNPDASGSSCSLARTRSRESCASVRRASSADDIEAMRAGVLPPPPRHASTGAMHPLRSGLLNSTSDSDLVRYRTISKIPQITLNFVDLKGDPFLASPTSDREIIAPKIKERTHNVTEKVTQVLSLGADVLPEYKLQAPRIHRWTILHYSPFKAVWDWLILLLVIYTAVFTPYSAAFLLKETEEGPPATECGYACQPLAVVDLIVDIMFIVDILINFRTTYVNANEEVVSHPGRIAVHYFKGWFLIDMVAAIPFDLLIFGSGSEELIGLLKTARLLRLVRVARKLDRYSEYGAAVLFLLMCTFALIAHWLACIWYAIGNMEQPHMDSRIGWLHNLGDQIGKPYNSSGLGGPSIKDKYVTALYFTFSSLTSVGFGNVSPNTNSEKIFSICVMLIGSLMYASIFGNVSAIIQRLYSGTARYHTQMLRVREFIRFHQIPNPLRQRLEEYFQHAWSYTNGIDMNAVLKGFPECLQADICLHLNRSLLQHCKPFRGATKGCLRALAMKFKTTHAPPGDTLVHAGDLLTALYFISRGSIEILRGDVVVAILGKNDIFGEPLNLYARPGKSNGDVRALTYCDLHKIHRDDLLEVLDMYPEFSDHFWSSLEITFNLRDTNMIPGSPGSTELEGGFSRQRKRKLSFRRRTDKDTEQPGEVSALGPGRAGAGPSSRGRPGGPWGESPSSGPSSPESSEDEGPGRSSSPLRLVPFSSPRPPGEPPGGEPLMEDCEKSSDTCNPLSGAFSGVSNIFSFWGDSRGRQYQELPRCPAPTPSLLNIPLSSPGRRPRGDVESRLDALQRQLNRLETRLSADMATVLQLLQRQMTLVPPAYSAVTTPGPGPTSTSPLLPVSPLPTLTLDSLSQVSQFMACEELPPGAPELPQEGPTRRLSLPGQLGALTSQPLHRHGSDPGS

Row | SMILES | hERG current change (%, negative = inhibition) at 1uM
1 | COc1ccc(CNC(=O)CCc2cc(OC)c(OC)c(OC)c2)cc1 | 12.4%
2 | Clc1ccc(Cc2noc(-c3cccs3)n2)cc1 | 8.24%
3 | COc1ccc(OCCCn2c(=O)oc3ccccc32)cc1 | 8.8%
4 | Brc1ccccc1OCCCCCN1CCOCC1.O=C(O)C(=O)O | -1.12%
5 | CCCCCCC/C=N/Nc1nnc(Cc2ccccc2)c(=O)[nH]1 | 16.7%
6 | COc1cc(NC(=O)CCCNC(=O)Cn2cnc3sc(C)c(C)c3c2=O)cc(OC)c1OC | 17.7%
7 | CC1=CCC2C(=O)N(c3nc(C)cc(C)n3)C(=O)C2C1 (centres unmarked) | 16.9%
8 | O=C(CSc1nnc2ccccn12)Nc1ccc(S(=O)(=O)N2CCOCC2)cc1 | 5.43%
9 | O=C(O)c1cc(N2C(=O)CCC2=O)ccc1Cl | 7.77%
10 | O=C(c1cccc(F)c1)N1CCN(C(=O)c2nn3cccnc3c2Cl)CC1 | 5.23%
11 | CCNc1nc(NCC)nc(N/N=C/c2ccc(N(C)C)cc2)n1 | 11.3%
12 | Cc1cnc(NC(=O)CSc2nnc(C)n2N)s1 | -3.86%
13 | CCn1c(=O)n(CC)c2cc(S(=O)(=O)NCCOc3ccccc3)c(C)cc21 | 12.5%
14 | NC(=O)Nc1cc(Cl)ccc1Cl | 10.4%
15 | CCC(=O)Nc1cc(C(C)C)c(O)cc1C | 11.5%
16 | COC(=O)C1=C(c2ccc(F)cc2OCc2ccccc2)C[C@@H]2CC[C@H]1N2C(=O)NCc1ccccc1 | 8.07%
17 | c1ccc(Cn2c(-c3ccccc3)nc3nc4ccccc4nc32)cc1 | 0.307%
18 | C/C(=N\N=C1\NC(=O)C(CC(=O)Nc2ccc(C)c(Cl)c2)S1)C(C)(C)C (centres unmarked) | 11.5%
19 | CCN(CC)S(=O)(=O)c1cccc(NC(=O)COc2ccc(F)cc2Br)c1 | 6.99%
20 | CCc1ccc(C(C(=O)NC(C)(C)CC)N(Cc2ccco2)C(=O)Cn2nnc3ccccc32)cc1 (centres unmarked) | 13.5%

Row | SMILES | hERG current change (%, negative = inhibition) at 1uM
21 | Cc1ccc(CS(=O)(=O)CCC(=O)NCCC(C)C)cc1 | 6.06%
22 | COc1ccc(-c2nnc(SC)o2)c(OC)c1 | 16.3%
23 | O=C1NC(=O)C(=C2CCCCCC2)S1 | 5.85%
24 | O=C1CS/C(=N/N=C/c2ccccc2)N1Cc1ccco1 | 12.1%
25 | CC(C)c1ccc(NC(=O)COC(=O)c2c[nH]c(=O)[nH]c2=O)cc1 | 10.1%
26 | Clc1ccc(CCNc2ncnc3c2nnn3Cc2ccccc2)cc1 | 11.9%
27 | Cc1cccc(C)c1N1CCN(c2c(C)cccc2C)CC1 | 16.7%
28 | COc1ccccc1CNC(=O)C(C)NS(=O)(=O)c1ccc(Br)cc1 (centres unmarked) | 11.6%
29 | O=c1cc(N2CCCCC2)c(-c2ccccc2)nn1Cc1ccc(F)cc1 | 3.63%
30 | CCOC(=O)C1=C(c2ccccc2)N=c2s/c(=C\c3ccco3)c(=O)n2C1c1cccs1 (centres unmarked) | 25.7%
31 | O=C(NCCN=C1NS(=O)(=O)c2ccccc21)c1ccco1 | 5.21%
32 | Cc1ccccc1C(=O)NNC(=S)NC(=O)c1cccnc1 | 13.6%
33 | Cc1cc(C)c2c(C)[nH]nc2n1 | 17.5%
34 | CN1CCCC1CCNc1ccc2oc3ccccc3c(=O)c2c1 (centres unmarked) | 8.43%
35 | CCCC(C(=O)NC1CCCCC1)N(Cc1ccco1)C(=O)CNS(=O)(=O)c1ccccc1 (centres unmarked) | -1.69%
36 | C/C(=N\NC(=O)c1ccc(F)cc1)c1cccc(NC(=O)c2ccco2)c1 | 4.72%
37 | CC1=C(C(N)=O)C(c2ccccc2)n2nc(-c3ccncc3)nc2N1 (centres unmarked) | 11.1%
38 | CCC12CC3CC(C1)CC(C(=O)O)(C3)C2 | 9.41%
39 | N[C@@H](Cc1ccccc1)C(=O)N1CCC(C(=O)NCC(=O)NCC(=O)O)CC1 (H-F[Inp]GG-OH) | 16.4%
40 | Cc1ccnc(N2CCN(c3cc(C)c(C#N)c4nc5ccccc5n34)CC2)c1 | -0.102%

Row | SMILES | hERG current change (%, negative = inhibition) at 1uM
41 | COC(=O)Cc1ccc(NC(=S)NNC(=O)C2CC2)cc1 | 12.6%
42 | Cc1cc(=O)c2ccccc2s1 | 3.09%
43 | Cc1nn(-c2ccccc2)c(N2CCCCC2)c1/C=N/O | 4.74%
44 | O=C(CSc1n[nH]c(=O)[nH]c1=O)N/N=C/C=C/c1ccccc1 | 16.1%
45 | O=C(CN1C(=O)S/C(=C\c2ccccn2)C1=O)Nc1ccccc1 | 13.9%
46 | COc1cccc(N=Cc2c[nH][nH]c2=O)c1 | 13%
47 | Cc1cccc(OCCC(=O)NNC(=O)c2ccoc2C)c1 | 6.36%
48 | CN1CCN(c2cc(N3CCN(C(=O)c4ccco4)CC3)c3c4c(onc24)-c2ccccc2C3=O)CC1 | 31.3%
49 | CCc1nccn1Cc1cc(C=O)ccc1OC.Cl | 5.59%
50 | CC(=O)c1ccc(OC(C)C(=O)OCC(=O)NCCc2ccccc2)cc1 (centres unmarked) | 6.99%
51 | CN(C)CCN(Cc1ccccc1)S(=O)(=O)c1ccc2c(c1)n(C)c(=O)c(=O)n2C | 10.6%
52 | Cn1c(=O)c2c(SCC(=O)Nc3nccs3)nc(C3CC3)nc2n(C)c1=O | 12.1%
53 | CCc1ccccc1NC(=O)NC1CCCCCCC1 | 17.7%
54 | O=C(c1ccc(Cl)cc1)C1CCCN(C(=O)c2csnn2)C1 (centres unmarked) | 9.03%
55 | COc1cccc(CNC(=O)CCC2CCCN(C(=O)c3cccc4c(C)c(C)[nH]c34)C2)c1 (centres unmarked) | 11.6%
56 | CSCC[C@H](NC(=O)c1ccc2ccccc2c1)C(=O)N1CCC2(CC1)NCCc1[nH]cnc12 | 5.8%
57 | CCCSCCCNC(=O)Cn1cc2c(n1)CCC(C)C2 (centres unmarked) | -2.86%
58 | CC(C)(C)c1ccc(-c2nc3[nH]c(=O)cc(NC(=O)c4ccco4)n3n2)cc1 | 15.3%
59 | C/C(CC(=O)Nc1cccc(Cl)c1Cl)=N\NC(=O)c1ccccc1Br | 8.27%
